From the supplement of paper PMC12217912 come the findings set out here.

The list shows a part of the results. Sequences were assembled here from the parent chain. Inactive controls read about 0.05.

First the molecules themselves.
B1: TEV protease; numbered along this chain (parent)
chain: MGESLFKGPRDYNPISSSICHLTNESDGHTTSLYGIGFGPFIITNKHLFRRNNGTLVVQSLHGVFKVKDTTTLQQHLVDGRDMIIIRMPKDFPPFPQKLKFREPQREERICLVTTNFQTKSMSSMVSDTSCTFPSGDGIFWKHWIQTKDGQCGSPLVSTRDGFIVGIHSASNFTNTNNYFTSVPKNFMELLTNQEAQQWVSGWRLNADSVLWGGHKVFMVKPEEPFQPVKEATQL

In this experiment the parent is B1. As to the kind of experiment: raw area under fraction-flipped curve 0-4 h after induction (AUC4h, not background-subtracted), DNA-recorder readout of cleavage of the substrate (dimensionless); higher = more cleavage of the substrate by the protease variant. To be noted: temperature: 34 °C; time window: 0-4 h after rhamnose induction. The procedure: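 In vivo DNA recorder in E. coli TOP10(DE3) ΔrhaA at 34 °C. Each TEVp single-site mutant (parent TEVp 0) is paired with a single-site variant of the 7-mer TEVs (canonical ENLYFQ|S). The substrate sits between flexible linkers in a Bxb1-sfGFP-TEVs-SsrA fusion, so cleavage stabilises Bxb1 and speeds flipping of a recombination array, read by NGS. The value is the raw area under the fraction-flipped curve over 0-4 h after rhamnose induction (AUC4h), with ≥20 reads per time point. It is not background-subtracted; inactive controls average about 0.047.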
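Note: Bxb1 expression induced with 0.2% (w/v) L-rhamnose at OD600 near 0.5, cultures sampled hourly, flipped fraction per protease–substrate barcode pair counted by paired-end Illumina sequencing.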

For MGESLFKGPRDYNPIGSSICHLTNESDGHTTSLYGIGFGPFIITNKHLFRRNNGTLVVQSLHGVFKVKDTTTLQQHLVDGRDMIIIRMPKDFPPFPQKLKFREPQREERICLVTTNFQTKSMSSMVSDTSCTFPSGDGIFWKHWIQTKDGQCGSPLVSTRDGFIVGIHSASNFTNTNNYFTSVPKNFMELLTNQEAQQWVSGWRLNADSVLWGGHKVFMVKPEEPFQPVKEATQL [S16G], the “area with substrate ENLYFQA” value amounted to 0.1, the “area with substrate ENLYFQC” value was 0.139, the “area with substrate ENLYFQD” value was 0.0666 and the “area with substrate ENLYFQG” value came to 0.112. The “area with substrate ENLYFQI” value stood at 0.0519, the “area with substrate ENLYFQK” value was 0.0507, the “area with substrate ENLYFQL” value is 0.0731 and the “area with substrate ENLYFQM” value was determined as 0.109. The “area with substrate ENLYFQN” value is 0.0544, the “area with substrate ENLYFQP” value was determined as 0.0325, the “area with substrate ENLYFQR” value was 0.0681 and the “area with substrate ENLYFQS” value turned out to be 0.109. The “area with substrate ENLYFQT” value came to 0.0633, the “area with substrate ENLYFQV” value turned out to be 0.0694, the “area with substrate ENLYFQW” value turned out to be 0.0607 and the “area with substrate ENLYFQY” value was 0.0695.
For MGESLFKGPRDYNPICSSICHLTNESDGHTTSLYGIGFGPFIITNKHLFRRNNGTLVVQSLHGVFKVKDTTTLQQHLVDGRDMIIIRMPKDFPPFPQKLKFREPQREERICLVTTNFQTKSMSSMVSDTSCTFPSGDGIFWKHWIQTKDGQCGSPLVSTRDGFIVGIHSASNFTNTNNYFTSVPKNFMELLTNQEAQQWVSGWRLNADSVLWGGHKVFMVKPEEPFQPVKEATQL [S16C], the “area with substrate ENLYFQA” value came out at 0.114, the “area with substrate ENLYFQC” value amounted to 0.12, the “area with substrate ENLYFQD” value came out at 0.0661 and the “area with substrate ENLYFQF” value was determined as 0.0664. Further, the “area with substrate ENLYFQH” value was determined as 0.0716, the “area with substrate ENLYFQI” value is 0.0535, the “area with substrate ENLYFQK” value stood at 0.0689 and the “area with substrate ENLYFQL” value is 0.0729. For the same variant, the “area with substrate ENLYFQM” value was determined as 0.0973, the “area with substrate ENLYFQN” value stood at 0.0801, the “area with substrate ENLYFQP” value is 0.0755 and the “area with substrate ENLYFQR” value is 0.0542. The “area with substrate ENLYFQS” value was 0.101, the “area with substrate ENLYFQT” value was 0.0735, the “area with substrate ENLYFQV” value was determined as 0.065 and the “area with substrate ENLYFQW” value is 0.0639.
On to MGESLFKGPKDYNPISSSICHLTNESDGHTTSLYGIGFGPFIITNKHLFRRNNGTLVVQSLHGVFKVKDTTTLQQHLVDGRDMIIIRMPKDFPPFPQKLKFREPQREERICLVTTNFQTKSMSSMVSDTSCTFPSGDGIFWKHWIQTKDGQCGSPLVSTRDGFIVGIHSASNFTNTNNYFTSVPKNFMELLTNQEAQQWVSGWRLNADSVLWGGHKVFMVKPEEPFQPVKEATQL [R10K], for which the “area with substrate ENLYFQA” value was found to be 0.0715, the “area with substrate ENLYFQC” value came out at 0.103, the “area with substrate ENLYFQH” value worked out at 0.0582 and the “area with substrate ENLYFQI” value amounted to 0.078. Moreover, the “area with substrate ENLYFQL” value was found to be 0.0516, the “area with substrate ENLYFQM” value turned out to be 0.0763, the “area with substrate ENLYFQN” value amounted to 0.0633 and the “area with substrate ENLYFQP” value worked out at 0.0474. The “area with substrate ENLYFQR” value came out at 0.0479, the “area with substrate ENLYFQS” value was determined as 0.0911, the “area with substrate ENLYFQT” value turned out to be 0.063 and the “area with substrate ENLYFQV” value came to 0.0467. The “area with substrate ENLYFQW” value amounted to 0.062 and the “area with substrate ENLYFQY” value came to 0.0643.
Consider MGESLFKGPSDYNPISSSICHLTNESDGHTTSLYGIGFGPFIITNKHLFRRNNGTLVVQSLHGVFKVKDTTTLQQHLVDGRDMIIIRMPKDFPPFPQKLKFREPQREERICLVTTNFQTKSMSSMVSDTSCTFPSGDGIFWKHWIQTKDGQCGSPLVSTRDGFIVGIHSASNFTNTNNYFTSVPKNFMELLTNQEAQQWVSGWRLNADSVLWGGHKVFMVKPEEPFQPVKEATQL [R10S], for which the “area with substrate ENLYFQA” value stood at 0.0877, the “area with substrate ENLYFQC” value amounted to 0.0878, the “area with substrate ENLYFQF” value was 0.0717 and the “area with substrate ENLYFQG” value is 0.0983. Besides, the “area with substrate ENLYFQH” value came out at 0.0796, the “area with substrate ENLYFQK” value was found to be 0.0753, the “area with substrate ENLYFQL” value came out at 0.0702 and the “area with substrate ENLYFQM” value was 0.102. Also, the “area with substrate ENLYFQN” value was 0.0679, the “area with substrate ENLYFQP” value amounted to 0.0586, the “area with substrate ENLYFQR” value came out at 0.0566 and the “area with substrate ENLYFQS” value is 0.0966. Besides, the “area with substrate ENLYFQT” value stood at 0.0651, the “area with substrate ENLYFQV” value came to 0.0731 and the “area with substrate ENLYFQW” value came out at 0.0655.
Turning to MGESEFKGPRDYNPISSSICHLTNESDGHTTSLYGIGFGPFIITNKHLFRRNNGTLVVQSLHGVFKVKDTTTLQQHLVDGRDMIIIRMPKDFPPFPQKLKFREPQREERICLVTTNFQTKSMSSMVSDTSCTFPSGDGIFWKHWIQTKDGQCGSPLVSTRDGFIVGIHSASNFTNTNNYFTSVPKNFMELLTNQEAQQWVSGWRLNADSVLWGGHKVFMVKPEEPFQPVKEATQL [L5E], the “area with substrate ENLYFQA” value was found to be 0.0958, the “area with substrate ENLYFQC” value turned out to be 0.129, the “area with substrate ENLYFQF” value stood at 0.0646 and the “area with substrate ENLYFQH” value was determined as 0.069. Moreover, the “area with substrate ENLYFQI” value worked out at 0.0592, the “area with substrate ENLYFQK” value stood at 0.062, the “area with substrate ENLYFQL” value came to 0.0507 and the “area with substrate ENLYFQN” value is 0.0852. In addition, the “area with substrate ENLYFQR” value is 0.0613, the “area with substrate ENLYFQS” value came out at 0.112, the “area with substrate ENLYFQT” value worked out at 0.0596 and the “area with substrate ENLYFQV” value worked out at 0.113. For the same variant, the “area with substrate ENLYFQW” value is 0.0627 and the “area with substrate ENLYFQY” value was determined as 0.0992.
On to MGESLFKGPRDYSPISSSICHLTNESDGHTTSLYGIGFGPFIITNKHLFRRNNGTLVVQSLHGVFKVKDTTTLQQHLVDGRDMIIIRMPKDFPPFPQKLKFREPQREERICLVTTNFQTKSMSSMVSDTSCTFPSGDGIFWKHWIQTKDGQCGSPLVSTRDGFIVGIHSASNFTNTNNYFTSVPKNFMELLTNQEAQQWVSGWRLNADSVLWGGHKVFMVKPEEPFQPVKEATQL [N13S], for which the “area with substrate ENLYFQA” value came to 0.088, the “area with substrate ENLYFQC” value came to 0.101, the “area with substrate ENLYFQD” value was 0.0684 and the “area with substrate ENLYFQF” value amounted to 0.0926. The “area with substrate ENLYFQG” value was 0.153, the “area with substrate ENLYFQH” value turned out to be 0.0738, the “area with substrate ENLYFQI” value was 0.0639 and the “area with substrate ENLYFQK” value was determined as 0.0592. For the same variant, the “area with substrate ENLYFQL” value was 0.064, the “area with substrate ENLYFQM” value was 0.072, the “area with substrate ENLYFQN” value was 0.0615 and the “area with substrate ENLYFQP” value stood at 0.0653. Further, the “area with substrate ENLYFQQ” value was found to be 0.0662, the “area with substrate ENLYFQR” value was determined as 0.0525, the “area with substrate ENLYFQS” value came to 0.0982 and the “area with substrate ENLYFQT” value worked out at 0.0708. For the same variant, the “area with substrate ENLYFQV” value worked out at 0.0515, the “area with substrate ENLYFQW” value turned out to be 0.0741 and the “area with substrate ENLYFQY” value is 0.0693.
With MGESLFKGPRDYVPISSSICHLTNESDGHTTSLYGIGFGPFIITNKHLFRRNNGTLVVQSLHGVFKVKDTTTLQQHLVDGRDMIIIRMPKDFPPFPQKLKFREPQREERICLVTTNFQTKSMSSMVSDTSCTFPSGDGIFWKHWIQTKDGQCGSPLVSTRDGFIVGIHSASNFTNTNNYFTSVPKNFMELLTNQEAQQWVSGWRLNADSVLWGGHKVFMVKPEEPFQPVKEATQL [N13V], the “area with substrate ENLYFQA” value is 0.119, the “area with substrate ENLYFQC” value turned out to be 0.119, the “area with substrate ENLYFQE” value is 0.0686 and the “area with substrate ENLYFQI” value worked out at 0.0623. Further, the “area with substrate ENLYFQK” value turned out to be 0.0621, the “area with substrate ENLYFQL” value was 0.0622, the “area with substrate ENLYFQM” value was determined as 0.0425 and the “area with substrate ENLYFQP” value came out at 0.0613. Moreover, the “area with substrate ENLYFQQ” value was found to be 0.0641, the “area with substrate ENLYFQR” value came out at 0.0744, the “area with substrate ENLYFQS” value stood at 0.0957 and the “area with substrate ENLYFQT” value was determined as 0.0551. Moreover, the “area with substrate ENLYFQV” value came to 0.0526 and the “area with substrate ENLYFQW” value was 0.0475.
Take MGESLFKGPRDYTPISSSICHLTNESDGHTTSLYGIGFGPFIITNKHLFRRNNGTLVVQSLHGVFKVKDTTTLQQHLVDGRDMIIIRMPKDFPPFPQKLKFREPQREERICLVTTNFQTKSMSSMVSDTSCTFPSGDGIFWKHWIQTKDGQCGSPLVSTRDGFIVGIHSASNFTNTNNYFTSVPKNFMELLTNQEAQQWVSGWRLNADSVLWGGHKVFMVKPEEPFQPVKEATQL [N13T]: the “area with substrate ENLYFQA” value came to 0.129, the “area with substrate ENLYFQC” value was found to be 0.131, the “area with substrate ENLYFQE” value is 0.0921 and the “area with substrate ENLYFQG” value was 0.0951. Also, the “area with substrate ENLYFQH” value was determined as 0.0912, the “area with substrate ENLYFQI” value worked out at 0.0628, the “area with substrate ENLYFQM” value worked out at 0.119 and the “area with substrate ENLYFQR” value was found to be 0.0345. The “area with substrate ENLYFQS” value came out at 0.102, the “area with substrate ENLYFQT” value was 0.0548, the “area with substrate ENLYFQV” value was 0.0685 and the “area with substrate ENLYFQW” value was 0.0634. The “area with substrate ENLYFQY” value turned out to be 0.069.
Regarding MGESLFKGPRDYWPISSSICHLTNESDGHTTSLYGIGFGPFIITNKHLFRRNNGTLVVQSLHGVFKVKDTTTLQQHLVDGRDMIIIRMPKDFPPFPQKLKFREPQREERICLVTTNFQTKSMSSMVSDTSCTFPSGDGIFWKHWIQTKDGQCGSPLVSTRDGFIVGIHSASNFTNTNNYFTSVPKNFMELLTNQEAQQWVSGWRLNADSVLWGGHKVFMVKPEEPFQPVKEATQL [N13W], the “area with substrate ENLYFQA” value is 0.108, the “area with substrate ENLYFQC” value came to 0.103, the “area with substrate ENLYFQD” value turned out to be 0.0732 and the “area with substrate ENLYFQE” value was determined as 0.0513. Moreover, the “area with substrate ENLYFQG” value came to 0.0726, the “area with substrate ENLYFQH” value came out at 0.0782, the “area with substrate ENLYFQI” value came to 0.0632 and the “area with substrate ENLYFQK” value amounted to 0.0665. For the same variant, the “area with substrate ENLYFQL” value came to 0.0688, the “area with substrate ENLYFQM” value is 0.0814, the “area with substrate ENLYFQN” value was found to be 0.0667 and the “area with substrate ENLYFQP” value came to 0.0545. Besides, the “area with substrate ENLYFQQ” value stood at 0.0625, the “area with substrate ENLYFQR” value amounted to 0.0648, the “area with substrate ENLYFQS” value came out at 0.09 and the “area with substrate ENLYFQT” value was 0.0508. Moreover, the “area with substrate ENLYFQV” value was determined as 0.0659 and the “area with substrate ENLYFQW” value was 0.064.
